# The other results are listed elsewhere or left out. At the low end of the ranking, values are background and their order means little.
# System: MYC (p64) + MAX (p21), in MYC:MAX
# Experiment: protein-binding microarray (anti-MAX antibody)
# Settings: PBM: 15 mM Tris-HCl pH 7.5, 100 mM KCl, 0.075% NP40, 7.5 mM beta-mercaptoethanol, 375 ng/ul BSA, 8 ng/ul poly(dA-dT):(dA-dT), 550 ng complex, 60 min, room …; high values mean tight binding; double strand, one strand shown; sequences stand for … in CCGGC…TTAATAGCTAAGATTACTATATCGACG
row,Sequence,binding signal (log2 normalized fluorescence)
1,TGACGATGGGTA,0.154
2,TGAGGCGTGGCA,0.399
3,TGACACAAAGTA,0.134
4,TGACACGTGATA,0.522
5,TGACTCGAGGTA,0.385
6,TGACACTTAGTA,0.231
7,TGAGAGCATGTA,0.427
8,TGAAAAGTGGGA,-0.077
9,TGATGTACGGTA,0.183
10,TGCCACTTGGTT,0.173
11,TGTCACCGGGTA,0.0662
12,TGAACTAGAGTA,-0.117
13,TGAAATGAGGTA,0.424
14,AGGTTTCACCGG,0.273
15,TGAACGCATGTA,0.747
16,TGAAACGCTGTA,0.131
17,TGAGTGTTCGTA,0.0832
18,TGAGATGTTGTA,-0.226
19,TGACCTATTGTA,-0.00366
20,TGAAAGGACGTA,0.041
21,TGAAGTCACGTA,0.345
22,TGACGCTCTGTA,0.0856
23,TGAGTTACTGTA,-0.0441

row,Sequence,binding signal (log2 normalized fluorescence)
1,TGACAGCTAGTA,0.0975
2,TGATTTAACGTA,-0.0239
3,TGTGACGTGGTA,0.414
4,TGAGGCTCGGTA,0.0574
5,TGAGACCCCGTA,0.0159
6,TGAGCTCTGGTA,-0.127
7,AGCGGGTCGCAC,-0.00303
8,TGAGGCAGTGTA,-0.129
9,TGACGTAATGTA,0.0654
10,TGACGACGGGTA,0.00772
11,TGACGAAGAATC,-0.158
12,AGACACGTGATC,0.751
13,TGACATGGAGTA,0.301
14,AGACACGTGGTC,0.904
15,TGCCACGACGTA,0.371
16,TGGCCCGTGGGA,0.168
17,TGAGCACAAGTA,0.273
18,TGACATATCGTA,0.246
19,TGATCTATTGTA,-0.0842
20,TGATAAGACGTA,0.0527
21,TGACACGCGATA,0.642
22,TGACGCTTTGTA,0.148
23,TGAATATCGGTA,-0.132

row,Sequence,binding signal (log2 normalized fluorescence)
1,TGAGGCGGTGTA,-0.0108
2,TGAGGCGGCGTA,-0.318
3,TGATCGCATGTA,0.469
4,TGATTCAACGTA,0.0711
5,TGACTCCAAGTA,0.0835
6,AGACTCGTTGTA,0.374
7,TCACCCATGGTA,0.452
8,TGAAGTGTAGTA,-0.0212
9,TGAGTAGCAGTA,-0.19
10,TGAACGTGAGTA,0.437
11,TGACTTACCGTA,0.0191
12,TGACCCTGAGTA,0.227
13,TGACATGGCGTA,0.389
14,TGAAAGATGGTA,-0.0345
15,TGATCCAGGGTA,-0.107
16,TGAGACTCTGTA,-0.0312
17,TGAGTTTCTGTA,0.0154
18,TGACAACGCGTA,0.35
19,CGACCTGTGGTA,0.234
20,TGATGAAACGTA,0.0957
21,TGATGTCCAGTA,0.242
22,TGCTACGTAGTA,0.0721
23,TGACACATGGTA,0.562

row,Sequence,binding signal (log2 normalized fluorescence)
1,TGACACCTGATC,0.308
2,TGAGAAACGGTA,0.115
3,TGATTACGGGTA,-0.179
4,TGAGTTGCTGTA,0.0091
5,TGATTTGTAGTA,-0.131
6,GGAGTAGTGGCT,0.0721
7,TGAACCCATGTA,0.399
8,TTACACGTGGTG,0.827
9,TGACTGACGGTA,-0.0692
10,TGATGACAAGTA,0.0742
11,TGACACGCTGTT,0.626
12,TGAGACGCCGTA,-0.0908
13,TGAAAGTATGTA,0.158
14,TGACACGTCATA,0.419
15,TGAAGTTCGGTA,-0.0247
16,TGATGCATAGTA,0.136
17,TGAGCGGCGGTA,-0.224
18,TGACACGGAGTA,0.316
19,TGAGTAGGTGTA,-0.181
20,TGACTAGTAGTA,-0.00827
21,AGCCACGTTGTA,0.643
22,TGAGGATATGTA,-0.0677
23,TGAGGCAGAGTA,0.068

row,Sequence,binding signal (log2 normalized fluorescence)
1,TGAGTCGTAGTA,-0.161
2,TGAATCCTCGTA,0.184
3,TGAGCGGGCGTA,0.0392
4,TGATCACGGGTA,0.304
5,TGAGTTACAGTA,-0.111
6,TGATTAGTGGTA,0.0286
7,TGATCATTCGTA,-0.0402
8,TGACATGTGGTT,0.359
9,TGATTTTTGGTA,-0.196
10,GGCCACGTAGTA,0.416
11,TGCCAGGTGGTG,0.372
12,TGATCTAAGGTA,-0.0357
13,TGACACAAGGGA,0.189
14,TGACTATCAGTA,-0.122
15,TGACCCAAGGTA,0.121
16,TGAGACTCGGTA,-0.116
17,TGACTTGCTGTA,0.307
18,TGATCCTGAGTA,-0.153
19,GAACATGTGGTA,0.703
20,TGAGAGTTTGTA,-0.13
21,TGAAAGCAGGTA,0.167
22,TGAGATATGGTA,-0.0464
23,ATTACTAGATGA,0.103

row,Sequence,binding signal (log2 normalized fluorescence)
1,TGACACGTGGAG,0.923
2,TGAAAGCCGGTA,-0.229
3,TGAGGGATGGTA,0.129
4,TGATATACCGTA,0.0282
5,TGAACTCTAGTA,-0.0217
6,TGACTAAGAGTA,-0.0177
7,TGACGCGTCGCA,0.259
8,TGATGGGAGGTA,0.178
9,TGACACGATGTA,0.599
10,TGAGCCAACGTA,0.131
11,TGGCAAGTGGTC,0.192
12,TGAAGGGGGGTA,0.855
13,TGATACTTTGTA,-0.0795
14,TGAAACAACGTA,0.159
15,TGATTGGTCGTA,-0.12
16,TGACCATACGTA,0.332
17,TGAGAGCGAGTA,0.0964
18,TGACACGAGCTA,0.396
19,TGATCACTGGTA,0.112
20,TGAGACGACGTA,0.0227
21,TGAATAGAGGTA,-0.106
22,TGAGAACCGGTA,0.0466
